According to PubChem BioAssay AID485281 (National Center for Advancing Translational Sciences (NCATS), 2010):
Out of some 350,000 compounds screened, about 260 (0.074%) were called active. Inconclusive results, whose numbers are uncertain, are shown with a selection of clear calls. Calls follow the shape of the dose curve; as a rule, active = well fitted inhibition curve with a large enough effect; inconclusive = small, poorly fitted or top-dose-only effect; inactive = no such curve, though single readings can be large or run the other way. Where the call is inconclusive, the potency comes from a doubtful curve fit.

What follows are molecules tested against Ferritin light chain (Equus caballus) (UniProt P02791) (assay: qHTS Assay for Identification of Novel General Anesthetics). Conditions: apoferritin/1-aminoanthracene competitive binding, fluorescence; activity change, negative = displacement: at 77.5 µM (top of the series).
UniProt P02791, sequence (P02791 whole entry, looked up): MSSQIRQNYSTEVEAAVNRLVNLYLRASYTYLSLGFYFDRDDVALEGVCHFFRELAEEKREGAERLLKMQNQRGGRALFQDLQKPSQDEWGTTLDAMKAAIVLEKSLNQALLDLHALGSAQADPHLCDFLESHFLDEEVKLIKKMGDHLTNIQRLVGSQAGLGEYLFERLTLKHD
Outline: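 Horse-spleen apoferritin (10 uM) was mixed with 50% saturated 1-aminoanthracene in PBS, exposed to compounds for 10 min at room temperature, and read for fluorescence (ex 380 nm, em 535 nm). Competitive displacement was fitted with a four-parameter Hill equation.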
% is scaled to controls: 0 for no effect and ±100 for the full control effect; potency is read from the fitted curve at half-maximal effect; tags tell the direction and shape of the fitted curve.
Also: nearly all actives have a fitted effect of over 20% in size.

Structure (SMILES)	activity change, negative = displacement	Potency
CCOC(=O)c1cn(CC)c2cc(N3CCOCC3)c(F)cc2c1=O	inactive: 1.89%	–
CCCNC(=O)NC(=O)CSc1ccc2c(c1)OCCO2	–	inconclusive: 35.5 µM [inhibitor, single point]
CCOC(=O)Cc1ccc(NC(=O)NCc2ccc3c(c2)CCN3C(=O)CC)cc1	–	inconclusive: 12.6 µM [inhibitor, partial curve]
Cc1nc(NS(=O)(=O)c2ccccc2)sc1NC(=O)Nc1ccc(Cl)cc1	inactive: 6.25%	–
CCC(Cc1ccccc1)NC(=O)Cn1cccc1C(=O)c1ccccc1 (centres undefined)	inactive: -12.9%	–
FC(F)(F)c1ccc2c(c1)NCC1CCCN21 (centres undefined)	–	inconclusive: 25.1 µM [inhibitor, partial curve]
Cc1cc(=O)n2nc(N3CCCC(C(=O)Nc4ccc(C)c(C)c4)C3)sc2n1 (centres undefined)	–	inconclusive: 35.5 µM [inhibitor, single point]
CCCCNS(=O)(=O)c1ccc(NC(=O)c2cccs2)cc1	–	inconclusive: 25.1 µM [inhibitor, partial curve]
NC(=O)c1ccc(N2CCN(c3ccc(O)cc3)CC2)c([N+](=O)[O-])c1	inactive: -11.6%	–
CCOc1ccc(-c2nnc(-c3cccs3)o2)cc1OCC	inactive: -18.7%	–
Cc1ccc2oc3c(c(=O)c2c1)C(c1ccc(F)cc1)N(Cc1ccc2c(c1)OCO2)C3=O (centres undefined)	inactive: -1.68%	–
OC(CNC1CCCc2ccccc21)COc1ccc2ccccc2c1 (centres undefined)	–	inconclusive: 25.1 µM [inhibitor, partial curve]
Cc1ccc(C(C#N)c2ccc(C(=O)c3ccc(F)cc3)cc2)cc1 (centres undefined)	–	inconclusive: 14.1 µM [inhibitor, partial curve]
Cc1cccc(/C=C(\c2nc3ccccc3[nH]2)S(=O)(=O)c2ccccc2)c1	inactive: -9.5%	–
CCN(CC)C(=O)CSc1nc(-c2ccccc2F)nc2c1Cc1c(CO)cnc(C)c1O2	–	inconclusive: 11.2 µM [inhibitor, partial curve]
Cc1ccc2[nH]c3c(=S)nc[nH]c3c2c1	–	inconclusive: 7.08 µM [inhibitor, partial curve]
COc1cc(C2CC(=O)c3c(O)cc(O)cc3O2)ccc1O (centres undefined)	–	inconclusive: 31.6 µM [inhibitor, partial curve]
CCC(C(=O)OCC(=O)Nc1cccc(OC)c1)c1ccccc1 (centres undefined)	–	inconclusive: 25.1 µM [inhibitor, partial curve]
COC(=O)C1=C(C)NC(C)=C(C(=O)OCCNCc2ccccc2)C1c1cccc([N+](=O)[O-])c1 (centres undefined)	–	inconclusive: 39.8 µM [inhibitor, single point]
COc1ccc(C(=O)N/N=C/c2sc3ccccc3c2O)cc1	inactive: -3.46%	–
C=CCc1ccccc1OCC(=O)NNC(=S)NCc1ccccc1	inactive: -22.8%	–
Cc1ccc(C)c(S(=O)(=O)NCc2ccc(C(=O)N3CCCCC3C)cc2)c1 (centres undefined)	–	inconclusive: 22.4 µM [inhibitor, single point]
O=c1c(-c2ccc(Cl)cc2)coc2c(CN3CCOCC3)c(O)ccc12	inactive: -12.5%	–
Cc1cccc(CNC(=O)Cn2nc(C)n3c(cc4cc(F)ccc43)c2=O)c1	inactive: -6.34%	–
Cc1cc(C)n2nc(CC(=O)NC3CCCC(C)C3C)nc2n1 (centres undefined)	–	inconclusive: 8.91 µM [inhibitor, partial curve]

Structure (SMILES)	activity change, negative = displacement	Potency
Cc1ccc(-n2nc(CO)c(C(=O)NCc3ccccn3)n2)cc1C	inactive: 0.95%	–
O=C(O)c1cccc(NC(=O)c2cc(NC(=O)c3ccccc3)cc(NC(=O)c3ccccc3)c2)c1	inactive: -10.1%	–
S=C(c1ccc(-c2ccc(Br)cc2)o1)N1CCCCC1	–	inconclusive: 31.6 µM [inhibitor, partial curve]
O=C(CCC(=O)NC1CCCCC1)N/N=C/c1ccncc1	–	inconclusive: 22.4 µM [inhibitor, partial curve]
O=C(NC(=S)Nc1cccc2cc(O)ccc12)c1ccccc1Br	–	inconclusive: 28.2 µM [inhibitor, partial curve]
CCN=c1scc(-c2ccc3c(c2)NC(=O)CO3)n1N=C1CCCC1	–	inconclusive: 50.1 µM [inhibitor, partial curve, poor fit]
Cc1cc(C(=O)NCC23CC4CC(CC(C4)C2)C3)c(C)o1	–	inconclusive: 14.1 µM [inhibitor, partial curve]
Cc1cccc(NC(=O)CCS(=O)(=O)c2ccc3c(c2)n(C)c(=O)c(=O)n3C)c1C	inactive: -0.485%	–
CCOC(=O)N1CCN(C(=O)c2ccc3c(=O)n(CCC4=CCCCC4)c(=O)[nH]c3c2)CC1	–	inconclusive: 31.6 µM [inhibitor, partial curve]
Fc1ccc(CNc2ccccn2)cc1	–	inconclusive: 15.8 µM [inhibitor, partial curve]
Cc1cc(C)nc(N/N=C/c2sccc2C)n1	inactive: -4.08%	–
CSc1ccc(CN2CCC(N3CC(C)OC(C)C3)CC2)cc1 (centres undefined)	inactive: -5.08%	–
COc1ccc2[nH]c3c(C)c4cc[n+](C)cc4c(C)c3c2c1	–	inconclusive: 28.2 µM [inhibitor, single point]
Cc1ccc(NC(=O)CSc2nc3ccccc3c(=O)n2CCCN2CCCCC2)cc1C	–	inconclusive: 28.2 µM [inhibitor, partial curve]
COc1ccc(NC(=O)c2ccc(NC(=O)C(C)C)cc2)c([N+](=O)[O-])c1	inactive: -10.7%	–
O=C(NCc1ccco1)c1ccc(COc2ccccc2Cl)cc1	–	inconclusive: 11.2 µM [inhibitor, partial curve]
O=C(CN1C(=O)NC2(CCCCCCC2)C1=O)NC(=O)NCc1ccco1	–	inconclusive: 56.2 µM [inhibitor, single point]
CC(C)(C)c1ccc(OCCNC(=O)Cc2ccc(F)cc2)cc1	–	inconclusive: 39.8 µM [inhibitor, partial curve]
Cc1ccccc1C(=O)N1CCN(c2ccc([N+](=O)[O-])c(N3CCOCC3)c2)CC1	–	inconclusive: 31.6 µM [inhibitor, partial curve]
COc1ccc(OC)c(N(C)S(=O)(=O)c2cc3c(cc2C)NC(=O)CO3)c1	inactive: -21.6%	–
Cn1cccc1C(=O)NC(=O)COC(=O)CC12CC3CC(CC(Br)(C3)C1)C2	–	inconclusive: 11.2 µM [inhibitor, partial curve]
COc1ccc(/C=N/n2c(N)nc(-c3ccccc3)c2-c2ccccc2)cc1	–	inconclusive: 28.2 µM [inhibitor, partial curve]
Oc1ccc(/C=N/NC(=S)Nc2cccnc2)c(O)c1	inactive: -8.94%	–
CCOC(=O)N1CCc2c(sc(NCc3cccc(F)c3)c2C(=O)Nc2ccccc2OCC)C1	–	inconclusive: 28.2 µM [inhibitor, single point]
C#C[C@]1(O)CCC2C3CCC4=Cc5oncc5C[C@@]4(C)C3CC[C@@]21C (some centres undefined)	inactive: -7.22%	–

Structure (SMILES)	activity change, negative = displacement	Potency
CCCCOc1ccccc1C1C(C(=O)OC)=CN(CC)C=C1C(=O)OC	inactive: 699%	–
COc1ccc(/C=C(/C(=O)c2ccc(Cl)cc2Cl)n2cncn2)cc1	–	inconclusive: 20 µM [inhibitor, partial curve]
Cc1ccc(C)n1Cc1ccc(C(=O)O)cc1	inactive: -3.09%	–
CC1CCCC(NC(=O)COC(=O)Cc2ccc(Br)cc2)C1C (centres undefined)	–	inconclusive: 20 µM [inhibitor, partial curve]
CCOC(=O)N1CCC(n2c(SCC(=O)N3CCC(C)CC3)nc3ccccc3c2=O)CC1	–	inconclusive: 39.8 µM [inhibitor, partial curve]
Cc1ccc(OCC(=O)N/N=C/C=C/c2ccco2)c(Br)c1	–	inconclusive: 28.2 µM [inhibitor, partial curve]
CCCCOC(=O)Nc1ccc(OC)cc1S(=O)(=O)N1CCOCC1	inactive: -8.53%	–
CCOC(=O)c1cnc(Nc2nc3ccccc3o2)nc1CSC(=S)N(CC)CC	inactive: 6.02%	–
CC1=CCC2C(=O)N(c3ccc(S(N)(=O)=O)cc3)C(=O)C2C1 (centres undefined)	–	inconclusive: 50.1 µM [inhibitor, single point]
O=C1c2ccncc2C(=O)N1Cc1cccc(Cl)c1	–	inconclusive: 25.1 µM [inhibitor, partial curve]
O=C(Nc1c(F)c(F)c(F)c(F)c1F)C1CCCCC1	–	inconclusive: 44.7 µM [inhibitor, partial curve]
COc1cc(/C=N/NC(=O)c2cc(C34CC5CC(CC(C5)C3)C4)[nH]n2)ccc1O	–	inconclusive: 28.2 µM [inhibitor, single point]
Cc1cc(N/N=C/c2ccccc2)nc(NCc2ccccc2)n1	–	inconclusive: 50.1 µM [inhibitor, single point]
O=C(CN1CCN(c2ccc(O)cc2)CC1)Nc1cc([N+](=O)[O-])ccc1Cl	inactive: 7.95%	–
CCN(CC)S(=O)(=O)c1ccc(C)c(NC(=S)N2CCN(c3ccccn3)CC2)c1	inactive: 9.75%	–
CC(=O)c1oc2ccccc2c1N	inactive: -8.76%	–
CCOC(=O)Cc1nc(-c2cccc(C(F)(F)F)c2)no1	–	inconclusive: 31.6 µM [inhibitor, single point]
Cc1sc(NC(=O)C2CCCC2)c(C#N)c1C	inactive: -8.4%	–
Cc1cccc(C)c1OCC(=O)N1CC2(C)CC1CC(C)(C)C2 (centres undefined)	–	inconclusive: 28.2 µM [inhibitor, partial curve]
C/C(CCc1oc2c(Br)cc(Br)cc2c1-c1ccc(C)o1)=N\O	inactive: -21.7%	–
COc1ccccc1CCNC(=O)C(=O)NCC(c1cccs1)S(=O)(=O)c1ccc(F)cc1 (centres undefined)	inactive: -7.89%	–
CC(=O)c1ccc(Sc2ccc(C(C)=O)cc2)cc1	–	inconclusive: 22.4 µM [inhibitor, partial curve]
COc1cc(/C=N/NC(=O)CCC(=O)NC2CCCCC2)ccc1C	–	inconclusive: 3.98 µM [inhibitor, full curve]
O=C1C2CC=C(Cl)CC2C(=O)N1CCc1c[nH]c2ccccc12 (centres undefined)	–	inconclusive: 28.2 µM [inhibitor, partial curve]
